About 10 (0.005%) of roughly 200,000 compounds were called active. Inconclusive means that the source gave no clear call. Such entries were picked first, then a sample of the others. Calls follow the shape of the dose curve; as a rule, active = well fitted inhibition curve with a large enough effect; inconclusive = small, poorly fitted or top-dose-only effect, or effect the other way, or another doubt; inactive = no such curve, though single readings can be large or run the other way. Potencies of inconclusive entries are left out as doubtful fits.
The compounds below were run against Lysosomal alpha-glucosidase (Homo sapiens) (UniProt P10253) (assay: qHTS Assay for Inhibitors of Human alpha-Glucosidase as a Potential Chaperone Treatment of Pompe Disease). Details: purified human GAA, 4-MU-alpha-glucoside fluorescence; activity change, negative = inhibition: at 76.9 µM (top of the series) unless noted.
Procedure, shortened: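 qHTS format, compound range up to 77 uM. Human lysosomal enzyme at 4 nM, 400 uM 4-MU glucoside substrate, pH 5.0, 20 min room temperature; fluorescence after alkaline stop gives activity normalized to controls.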
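For activity change, negative = inhibition in this document: plate controls were uninhibited enzyme wells for no effect and no-enzyme background for full effect.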
Potency is read from the fitted curve at half-maximal effect; tags tell the direction and shape of the fitted curve.

| Compound | Potency | activity change, negative = inhibition |
| --- | --- | --- |
| Cc1cccc(CSc2ccc(-c3cccs3)nn2)c1 | inconclusive [inhibitor, single point] | – |
| COc1ccc(NS(=O)(=O)c2ccc(S(=O)(=O)N3CCCC3)cc2)cc1Cl | – | inconclusive: -17.8% [inhibitor] |
| CN(CCN1CCOCC1)Cc1nc(-c2ccc3c(c2)OCO3)no1 | inconclusive [activator, full curve] | – |
| COc1ccc(-c2nc(CN3CCC(c4ccccc4)CC3)c(C)o2)cc1OC | inconclusive [inhibitor, partial curve] | – |
| COc1ccccc1NC(=O)C1CCCCN1S(=O)(=O)c1ccc(F)cc1 (configuration not stated) | – | inconclusive: -19.3% [inhibitor] |
| CCCCn1nc(C(=O)Oc2ccc3c(C)cc(=O)oc3c2)c2ccccc2c1=O | inconclusive [activator, partial curve] | – |
| C=CCNC(=O)c1ccc2nc(-c3ccccc3)c(-c3ccccc3)nc2c1 | inconclusive [activator, single point] | – |
| COCCn1c(/C=C/c2ccccc2)nc2ccccc21 | inconclusive [activator, partial curve, poor fit] | – |
| NNC(=O)c1cc2nc(-c3cccs3)cc(C(F)(F)F)n2n1 | – | inconclusive: 11.6% [activator] |
| Cc1ccc(OC(=O)CCC(=O)OCCCC(F)(F)C(F)(F)F)cc1 | – | inconclusive: -19.5% [inhibitor] |
| Cc1ccc(NC(=O)CSc2nnc(-c3cccnc3)n2-c2ccc(C)cc2)cc1 | inconclusive [inhibitor, single point] | – |
| OCCNCc1cc(Br)ccc1OCc1ccc(Cl)cc1Cl | – | inconclusive: -16.1% [inhibitor] |
| CN(CC(=O)N1CCc2[nH]c3ccc(F)cc3c2C1)CC1OCCO1 | inconclusive [inhibitor, single point] | – |
| COCCNc1c(-c2ccc(OC)cc2)nc2ccc(Cl)cn12 | – | inactive: 7.1% |
| CC(C)n1nnnc1SCC(=O)Nc1ccc2c(c1)OCO2 | inconclusive [inhibitor, partial curve, poor fit] | – |
| Cc1ccc(NC(=O)CN(C)CC(=O)Nc2ccccc2Oc2ccccc2)cc1 | inconclusive [inhibitor, single point] | – |
| O=C(Nc1ncc(C(F)(F)F)cc1Cl)C1COc2ccccc2O1 (configuration not stated) | inconclusive [inhibitor, single point] | – |
| O=C(CCSc1nc(-c2ccc3c(c2)OCO3)cc(C(F)(F)F)n1)NCc1ccco1 | inconclusive [activator, partial curve] | – |
| Cc1ccc(CNC(=O)CC2Sc3ccccc3NC2=O)cc1 (configuration not stated) | – | inconclusive: 19% [activator] |
| Cc1nn(Cc2ccccc2)c(C)c1CCC(=O)O | inconclusive [inhibitor, partial curve] | – |
| Cc1cccc(OCC(=O)N/N=C/c2ccc(N(C)C)cc2)c1 | – | inconclusive: 21.3% [activator] |
| COc1ccc(/C=C2\CC/C(=C\c3ccc(OC)cc3OC)C2=O)c(OC)c1 | inconclusive [inhibitor, single point] | – |
| Cc1nn(Cc2ccc(Cl)c(Cl)c2)c(C)c1NC(=O)c1cn(-c2ccccc2)nc1-c1ccccc1 | inconclusive [inhibitor, single point] | – |

| Compound | Potency | activity change, negative = inhibition |
| --- | --- | --- |
| O=C(Nc1ccc(S(=O)(=O)N2CCOCC2)cc1)c1cccnc1 | inconclusive [inhibitor, full curve, poor fit] | – |
| CSc1ccc(/C=C/C(=O)c2ccc(NC(=O)C(C)C)cc2)cc1 | inconclusive [inhibitor, single point] | – |
| CCOC(=O)C(C)c1nc2ccccc2[nH]c1=O (configuration not stated) | inconclusive [activator, single point] | – |
| O=C(NCCc1ccccc1)c1cnc2ccccn2c1=O | inconclusive [activator, partial curve] | – |
| Cc1ccc(-c2cn3cccnc3n2)cc1 | inconclusive [activator, partial curve] | – |
| Cc1ccc(Nc2nc(C(=O)N3CCC(C(=O)NCCN4CCOCC4)CC3)cs2)cc1 | – | inconclusive: 24.1% [activator] |
| CCOc1ccc(OCC)c(NC(=O)C2CCN(S(=O)(=O)c3cccc4nonc34)CC2)c1 | inconclusive [inhibitor, single point] | – |
| O=C(NNc1c2ccccc2nc2ccccc12)c1cccc(O)c1 | – | inactive: 11.9% |
| CCC(C(=O)NC1CCCCC1)n1c(SCc2cccc(F)c2)nc2ccncc21 (configuration not stated) | inconclusive [activator, single point] | – |
| Cc1cccc(CN2CCN(C(c3ccccc3)c3ccc(Cl)cc3)CC2)c1 (configuration not stated) | inconclusive [inhibitor, single point] | – |
| Cc1ccc(S(=O)(=O)NCC(=O)N2CCOCC2)cc1 | inconclusive [inhibitor, single point] | – |
| CN1C(=O)/C(=C/c2cn(CC(=O)NCc3ccco3)c3ccccc23)NC1=S | inconclusive [inhibitor, single point] | – |
| COc1cccc(C2N(c3cccc(Cl)c3)C(=O)C3CCCN32)c1OC (configuration not stated) | inconclusive [inhibitor, single point] | – |
| Cc1cc(NC(=O)CN2CCN(S(=O)(=O)c3ccc4ccccc4c3)CC2)no1 | inconclusive [inhibitor, partial curve, poor fit] | – |
| c1cc(C(c2nnnn2C2CCCC2)N2CCOCC2)ccn1 (configuration not stated) | – | inactive: 1.57% |
| O=C(CCN1C(=O)c2ccccc2S1(=O)=O)Nc1ccc2c(c1)OCCO2 | inconclusive [inhibitor, full curve, poor fit] | – |
| C/C(=N\Nc1ccc([N+](=O)[O-])cc1)c1ccco1 | inconclusive [inhibitor, full curve, poor fit] | – |
| CCN(CC)CCOc1cc2c(nn1)Oc1ccccc1N2C | – | inconclusive: 15.8% [activator] |
| CC(NC(=S)Nc1ccc(S(=O)(=O)N2CCOCC2)cc1)C1CC2CCC1C2 (configuration not stated) | inconclusive [inhibitor, full curve] | – |
| O=C(NCCOC(=O)C1COc2ccccc2O1)C1COc2ccccc2O1 (configuration not stated) | inconclusive [inhibitor, single point] | – |
| O=C1CC(Cc2ccccc2)C(=O)N1Cc1ccco1 (configuration not stated) | – | inactive: 0.966% |
| Cc1ccc(S(=O)(=O)Nc2nc(C)c(NC(=O)OCCCl)s2)cc1 | – | inactive: -4.05% |
| O=C(CSc1ccccc1)Nc1cc(S(=O)(=O)N2CCOCC2)ccc1N1CCOCC1 | inconclusive [inhibitor, partial curve] | – |

| Compound | Potency | activity change, negative = inhibition |
| --- | --- | --- |
| CCOC(=O)Nc1ccc2c(CN3C(=O)NC(CC)(CC)C3=O)cc(=O)oc2c1 | inconclusive [activator, partial curve] | – |
| O=C(Cc1cccs1)NC1CCCC1 | – | inconclusive: 13.6% [activator] |
| Cn1c(C(C#N)C2=C(Cl)C(=O)N(c3ccccc3)C2=O)nc2ccccc21 (configuration not stated) | – | inconclusive: -17.5% [inhibitor] |
| O=C(Nc1cccs1)Nc1c(F)c(F)cc(F)c1F | inconclusive [inhibitor, partial curve] | – |
| CC1CC1C(=O)OCC(=O)Nc1ccc(N=Nc2ccccc2)cc1 (configuration not stated) | inconclusive [inhibitor, partial curve, poor fit] | – |
| Cc1nc2ncnn2c(C)c1CCC(=O)Nc1ccc(S(=O)(=O)N2CCCCCC2)cc1 | inconclusive [inhibitor, single point] | – |
| O=C(OCc1ccccc1)N1CCOCCN(C(=O)OCc2ccccc2)CCOCC1 | – | inconclusive: 17.8% [activator] |
| COCCNc1nnc(SCC(=O)N2CCN(S(=O)(=O)c3ccccc3)CC2)s1 | – | inconclusive: -17.1% [inhibitor] |
| Cc1ccc(CCNC(=O)CN2C(=O)COc3ccccc32)cc1 | inconclusive [inhibitor, single point] | – |
| CCCn1c(C)cc(C(=O)COc2ccc(-c3nnco3)cc2)c1C | inconclusive [inhibitor, full curve] | – |
| CCN1CCN(C(c2cccs2)C(C)NC(=O)c2c(F)cccc2F)CC1 (configuration not stated) | – | inconclusive: 16.2% [activator] |
| COc1ccc(S(=O)(=O)NCC2CCCN(C(=O)CC3CCCC3)C2)cc1 (configuration not stated) | – | inconclusive: 15.4% [activator] |
| COC(=O)c1sc(C(F)(F)F)c(-c2ccccc2)c1S(=O)(=O)N1CCCC1 | inconclusive [inhibitor, single point] | – |
| CCNC(=O)CC1SC(=Nc2ccc(C)cc2)N(CC)C1=O (configuration not stated) | inconclusive [inhibitor, full curve, poor fit] | – |
| COc1ccc(OC)c(Cc2nnc(CCC(=O)NC(C3CC3)C3CC3)o2)c1 | – | inactive: 0.708% |
| CC1CC(CC(=O)Nc2nc(-c3ccccc3)cs2)C(=O)O1 (configuration not stated) | – | inconclusive: -16.5% [inhibitor] |
| O=C(Oc1c(-c2ccccc2)oc2ccccc2c1=O)c1ccccc1 | inconclusive [inhibitor, single point] | – |
| Cc1nc2cc(C(=O)O)ccc2s1 | – | inactive: -0.694% |
| Fc1ccc(-c2nnn(Cc3nc4ccccc4s3)n2)cc1 | – | inconclusive: 15.6% [activator] |
| CC(=O)Oc1ccc(-c2csnn2)cc1 | – | inactive: 1.1% |
| COc1ccc(C)cc1NC(=O)C(OC(=O)c1cccc(S(=O)(=O)N(C)c2ccccc2)c1)c1ccccc1 (configuration not stated) | inconclusive [inhibitor, single point] | – |
